{
  "source": "patent US20220332832A1",
  "about": "“COMBINED CANCER THERAPY OF ANTI-GALECTIN-9 ANTIBODIES AND CHEMOTHERAPEUTICS” (New York University, priority 2019, published 2022)",
  "key": {"[1]": {"conditions": "single i.v. dose 10-70 mg/kg, necropsies Day 8 and Day 22"}, "[2]": {"test": "Once weekly 5-week intravenous infusion toxicity and toxicokinetic study in monkeys", "assay_type": "in vivo, cynomolgus monkeys"}, "[3]": {"test": "Once weekly repeat-dose intravenous toxicity study in rats", "assay_type": "in vivo", "protocol": "The objective of this study was to evaluate potential toxicity of G9.2-17, an IgG4 human monoclonal antibody directed against galectin-9 at different doses, when administered by intravenous injection to Sprague Dawley Rats once weekly for 4 consecutive weeks followed by a 3-week post dose recovery period. In addition, the toxicokinetic characteristics of G9.2-17 were determined.\nOne hundred eighty-six animals (Sprague Dawley rats) were assigned to treatment groups randomly by body weight. Control Article/Vehicle, Formulation Buffer for Test Article, and test article, G9.2-17, were administered via a single IV injection in a tail vein at dose levels of 0, 100, and 300 mg/kg once on Days 1, 8, 15, 22, and 29. Test article was administered at dose levels of 100 and 300 mg/kg once on Day 1 to animals assigned to the SSD subgroup.\nClinical observations were performed once daily prior to room cleaning in the morning, beginning on the second day of acclimation. A mortality check was conducted twice daily to assess general animal health and wellness. Food consumption was estimated by weighing the supplied and remaining amount of food in containers once weekly. The average gram (g)/animal/day was calculated from the weekly food consumption. Body weights were taken prior to randomization, on Day -1, then once weekly throughout the study, and on the day of each necropsy. Functional Observation Battery (FOB) observations were recorded for SSB animals approximately 24 hours post dose administrations on Days 1, 35 and 49. Urine was collected overnight using metabolic cages. Samples were obtained on Days 36 and 50.\nAnimals were fasted overnight prior to each series of collections that included specimens for serum chemistry. In these instances associated clinical pathology evaluations were from fasted animals. […]\nParameters assessed during the In-life examinations of the study included clinical observations, food consumption, body weights, functional observational battery. […] At each necropsy, gross observations and organ weights were recorded, and tissues were collected for microscopic examination."}, "mouse model KPC004": {"test_system": "mouse model KPC004", "test": "Active dose in mouse model KPC004 and alternate models", "assay_type": "in vivo", "protocol": "The lowest anticipated pharmacologically active dose (PAD) is currently estimated to be 2 mg/kg, based on the mouse model KPC004 data, in which 50 mcg/mouse (2 mg/kg; human equivalent dose HED=0.16 mg/kg) was established as an active dose. Alternate models were active at the 200 or 400 mcg/mouse dose range (8-16 mg/kg; HED=0.65-1.3 mg/kg)."}, "orthotopic KPC models": {"test_system": "orthotopic KPC models", "test": "Orthotopic KPC models: tumor growth and survival", "assay_type": "in vivo"}, "[4]": {"protocol": "The vehicle and test article were administered once via IV infusion for 30 minutes during the study via a catheter percutaneously placed in the saphenous vein. The dose levels were 30, 100, and 200 mg/kg and administered at a dose volume of 20 mL/kg.\nThe animals were placed in sling restraints during dosing. The vehicle or test article were based on the most recent body weights and administered using an infusion pump and sterile disposable syringes. The dosing syringes were filled with the appropriate volume of vehicle or test article (20 mL/kg with 2 mL extra). At the completion of dosing, the animals were removed from the infusion system. The weight of each dosing syringe was recorded prior to the start and end of each infusion to determine dose accountability.\nThe animals were removed from the cage, and a detailed clinical examination of each animal was performed at 1 and 4.5 hours post-start of infusion (SOI) on Day 1 and once daily thereafter during the study. The animals were removed from the cage, and a detailed clinical examination of each animal was performed at 1 and 4.5 hours post-start of infusion (SOI) on Day 1 and once daily thereafter during the study. Body weights for all animals were measured and recorded at transfer, prior to randomization, on Day -1, and weekly during the study.\nClinical pathology evaluations (hematology, coagulation, and clinical chemistry) were conducted on all animals pretest and on Days 1 (prior to dosing), 3, 8, and 21. Additional samples for the determination of hematology parameters and peripheral blood lymphocyte and cytokine analysis samples were collected at 30 minutes (immediately after the end of infusion) and 4.5, 8.5, 24.5, and 72.5 hours post-SOI (relative to Day 1). Bone marrow smears were collected and preserved.\nFor processing, blood samples were collected in non-additive barrier free microtubes and centrifuged at controlled room temperature within 1 hour of collection. The resulting serum was divided into 2 approximately equal aliquots in pre labeled cryovials. All aliquots were stored frozen at -60° C. to -90° C. within 2 hours of collection.\nPostmortem study evaluations were performed on all animals euthanized at the scheduled necropsy.\nNecropsy examinations were performed under procedures approved by a veterinary pathologist. The animals were examined carefully for external abnormalities including palpable masses. The skin was reflected from a ventral midline incision and any subcutaneous masses were identified and correlated with antemortem findings. The abdominal, thoracic, and cranial cavities were examined for abnormalities. The organs were removed, examined, and, where required, placed in fixative. All designated tissues were fixed in neutral buffered formalin (NBF), except for the eyes (including the optic nerve) and testes. The eyes (including the optic nerve) and testes were placed in a modified Davidson's fixative, and then transferred to 70% ethanol for up to three days prior to final placement in NBF. Formalin was infused into the lung via the trachea. A full complement of tissues and organs was collected from all animals."}},
  "note": "Like-named read-outs stand apart in the source and are kept apart here.",
  "data": [
    {"molecule": "G9.2-17 IgG4: anti-galectin-9 IgG4 fully human antibody; VH SEQ ID NO: 7, VL SEQ ID NO: 8; heavy chain SEQ ID NO: 19, light chain SEQ ID NO: 15 (antibody, listed as Homo sapiens) heavy: EVQLVESGGGLVQPGGSLRLSCAASGFTVSSSSIHWVRQAPGKGLEWVAYISSSSGYTYYADSVKGRFTISADTSKNTAYLQMNSLRAEDTAVYYCARYWSYPSWWPYRGMDYWGQGTLVTVSSASTKGPSVFPLAPCSRSTSESTAALGCLVKDYFPEPVTVSWNSGALTSGVHTFPAVLQSSGLYSLSSVVTVPSSSLGTKTYTCNVDHKPSNTKVDKRV[letters of human IgG4 Fc with S228P L445P (EU numbers) not shown] light: DIQMTQSPSSLSASVGDRVTITCRASQSVSSAVAWYQQKPGKAPKLLIYSASSLYSGVPSRFSGSRSGTDFTLTISSLQPEDFATYYCQQSSTDPITFGQGTKVEIKRTVAAPSVFIFPPSDEQLKSGTASVVCLLNNFYPREAKVQWKVDNALQSGNSQESVTEQDSKDSTYSLSSTLTLSKADYEKHKVYACEVTHQGLSSPVTKSFNRGEC", "values": [
      {"measurement": "mortality", "setting": "[1]", "result": "no unscheduled deaths"},
      {"measurement": "functional observational battery (FOB) observations", "setting": "[2]; 100 and 300 mg/kg/dose weekly x5, treatment or recovery periods", "result": "No test article-related FOB observations"},
      {"measurement": "effects on cytokines", "setting": "[2]; any dose level or timepoint", "result": "No definitive G9.2-17-relatyed effects"},
      {"measurement": "serum concentration quantifiable after dose administration", "setting": "[2]; serum, LLOQ <0.04 ug/mL, 100 and 300 mg/kg/dose", "result": "quantifiable in all cynomolgus monkey samples from all G9.2-17-dosed animals"},
      {"measurement": "serum concentrations of IL-2, IL-4, IFN-γ, IL-5, IL-6, IL-10, TNF-α, MCP-1 and MIP-1b", "setting": "[3]; 100 and 300 mg/kg IV on Days 1, 8, 15, 22, 29, rat", "result": "no G9.2-17-related changed"},
      {"measurement": "FOB parameters", "setting": "[3]; 100 and 300 mg/kg IV once weekly, 5 doses, rat", "result": "no G9.2-17-related changes"},
      {"measurement": "absolute or relative organ weights", "setting": "[3]; necropsy Days 36 and 50", "result": "no G9.2-17-related changes in absolute or relative organ weights"},
      {"measurement": "active dose range", "setting": "mouse model KPC004; alternate models, 200 or 400 mcg/mouse", "result": "8 to 16", "unit": "mg/kg"},
      {"measurement": "lowest anticipated pharmacologically active dose (PAD)", "setting": "mouse model KPC004; estimated, based on mouse model KPC004 data", "result": 2, "unit": "mg/kg"},
      {"measurement": "active dose", "setting": "mouse model KPC004; mouse model KPC004", "result": 50, "unit": "mcg/mouse"},
      {"measurement": "extension of survival of KPC animals", "setting": "orthotopic KPC models", "result": "more than double"},
      {"measurement": "pancreatic tumor growth halted", "setting": "orthotopic KPC models", "result": 50, "unit": "%"},
      {"measurement": "effects on clinical chemistry endpoints", "setting": "[4]; cynomolgus monkey, in vivo", "result": "no G9.2-17 IgG4-related effects on clinical chemistry endpoints"},
      {"measurement": "effects on coagulation times or fibrinogen concentrations", "setting": "[4]; cynomolgus monkey, in vivo", "result": "no G9.2-17 IgG4-related effects on coagulation times"},
      {"measurement": "effects on cytokine endpoints", "setting": "[4]; cynomolgus monkey, in vivo", "result": "no G9.2-17 IgG4-related effects on cytokine endpoints"},
      {"measurement": "effects on hematology endpoints", "setting": "[4]; cynomolgus monkey, in vivo", "result": "no G9.2-17 IgG4-related effects on hematology endpoints"},
      {"measurement": "mortality", "setting": "[4]; single IV infusion 30-200 mg/kg, 3-week observation", "result": "All animals survived to the scheduled necropsy on Day 22"}
    ]}
  ]
}
